Results from PubChem BioAssay AID1671194 (National Center for Advancing Translational Sciences (NCATS), 2021).
Where “and” joins values, the source holds several entries; their conditions need not be identical. Equal values may be shown once. About 240 (0.17%) of roughly 140,000 compounds were called active. The inconclusive results got no clear call from the source; some entries with a clear call stand among them for comparison. Calls follow the shape of the dose curve; as a rule, active = well fitted inhibition curve with a large enough effect; inconclusive = small, poorly fitted or top-dose-only effect; inactive = no such curve, though single readings can be large or run the other way. Potencies of inconclusive entries are doubtful fits and often do not repeat. Some compounds were tested as several samples or in several runs, with calls that do not always agree.

Assay: Primary qHTS assay for inhibitors of alpha-synuclein gene (SNCA) expression; also: nearly all actives have a fitted effect of over 45% in size;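 as to activity change, negative = inhibition: plate controls were DMSO cells for no effect and cell-free wells for full effect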
Settings: HEK-293 SNCA-luciferase knock-in, luminescence, 24 h; activity change, negative = inhibition: at 57.2 µM (top of the series) unless noted
Potency is read from the fitted curve at half-maximal effect; tags tell the direction and shape of the fitted curve.

Potency, inactive:
O=S(=O)(c1ccc2c(c1)CCC2)N1CCCC1c1nncn1-c1ccccc1 (stereo unspecified), O=C(NCc1ccc2c(c1)OCO2)c1nc(-c2ccc(Cl)cc2Cl)c2ccccn12, CC(C)c1nc(-c2ccc(OC3CCN(C(=O)C4(c5ccccc5)CC4)C3)cc2)no1 (stereo unspecified), Cc1nsc(NC(=O)N2CCC(N)CC2)n1, COCCC1(NC(=O)NCc2ccc(C)cc2)CCN(S(C)(=O)=O)CC1, COCCCNc1cc(-c2cccc(C(F)(F)F)c2)nc2c(C)noc12, CC(=O)N1C[C@@H]2CCCN3CCC[C@@H]([C@H]23)[C@H]1CCCC(=O)NCCN(C)C, O=[S+]([O-])(NC1CCN(c2nc3ncccc3o2)CC1)c1cccs1, COc1ccc(CC(=O)N(C)Cc2cccc(C(F)(F)F)c2)cc1, Cc1ccccc1C(=O)N(C)Cc1cccc(C(F)(F)F)c1, Cc1ccc(C)c(S(=O)(=O)N2CCN(C3CCN(CCc4ccccc4)C3=O)CC2)c1 (stereo unspecified), CCCNC(=O)C(NC(=O)CC(C)C)C1CCN(C(=O)c2ccc(Cl)cc2)CC1 (stereo unspecified), CN1CCN(C(=O)c2ccc3nc(-c4ccccn4)oc3c2)CC1, Cc1cc(F)ccc1OC1CN(CC2CCCCC2)C1, CCOc1ccc(NC(=O)CSC2=Nc3ccccc3C3=NC(CC(=O)NCc4ccco4)C(=O)N23)cc1 (stereo unspecified), O=C(Nc1ccccc1)N1CCN(c2nccc(Nc3ccccc3F)n2)CC1, CCc1[nH]c2ccc(CNC(=O)[C@H]3[C@@H]4C=C[C@@]5(CN(C)C(=O)[C@@H]35)O4)cc2c1C, COCCNC(=O)C1(C)CCCc2cnc(Nc3ccccc3)nc21 (stereo unspecified), COc1ccc(S(=O)(=O)N(CC(=O)NCc2ccccc2)c2ccc(C)cc2)cc1OC, CN(C)c1nccnc1OC1CCN(C(=O)CC2CCCC2)C1 (stereo unspecified), Cc1nn2c(c1-c1ccccc1[S+](C)(=O)[O-])N(Cc1ccccc1)CCC2, CNC(=O)c1ccc2c(c1)n(Cc1ccc(OC)cc1)c(=O)c1ccnn12, COc1ccc(-c2nccc3c(=O)cc(N4CCOCC4)oc23)cc1OC, O=C(c1cc2n(n1)CC(c1ccc(Cl)cc1)OC2)N1CCN(c2ccc(F)cc2)CC1 (stereo unspecified), O=C1c2cnc(-c3cccc(CO)c3)nc2OCCN1c1cccc(C(F)(F)F)c1, COC(=O)c1ccc2nc(C[C@@H]3C[C@@H](C(C)C)[C@H](CNCc4ccccc4F)C=C3C)[nH]c2c1, O=C(NC1CCCN(c2cc(-c3ccc(F)cc3)[nH]n2)C1)c1cc(F)ccc1F (stereo unspecified), COc1ccccc1-c1ccc2ncc(Nc3ccc4c(c3)OCO4)n2n1, CN1CCCN(Cc2ccc3c(c2)OCO3)c2ccccc21, COc1cccc(-c2ccc3c(n2)CNC(=O)CO3)c1, O=C(c1ccc(F)cc1)N1CCN(Cc2ccccc2-c2cccnc2)CC1, COc1ccc(CN2Cc3[nH]nc(-c4ccc(CO)cc4)c3CC2=O)cc1, O=[S+]([O-])(NC1CCN(c2nccc(Nc3ccccc3F)n2)CC1)c1cccs1

Potency, active:
NC(=O)NO 1.36 µM

Potency, inconclusive:
COc1ccc(-c2cc3nc4c(c(=O)n3[nH]2)CN(C(=O)CN(C)S(=O)(=O)c2cnc[nH]2)CC4)cc1 3.16 µM [inhibitor, partial curve, poor fit], Cc1nn(C)cc1CN(C)CC1(O)CCCN(Cc2ccc(F)cc2)C1=O (stereo unspecified) 5.01 µM [inhibitor, single point], COc1ccc(NC(=O)Nc2cccc(-c3ccc(N4CCOCC4)nn3)c2)cc1Cl 20 µM [inhibitor, single point], CCc1noc(-c2ccn3c(CNC(=O)c4ccncc4)nnc3c2)n1 39.8 µM [inhibitor, single point], COc1ccc(C(CC(=O)N2CCCC2)c2cn(Cc3ccccc3)c3ccccc23)cc1OC (stereo unspecified) 20 µM [inhibitor, single point], COc1ccc(OC)c(NC(=O)Cn2c(=O)n(-c3cccc(C)c3)c(=O)c3c2cc(C)n3C)c1 31.6 µM [inhibitor, single point], Cc1nn2c(c1-c1ccccc1[S+](C)(=O)[O-])N(Cc1ccccc1F)CCC2 20 µM [inhibitor, partial curve, poor fit], Cc1ccc2c(c1)nc1n2[C@@H](CNS(C)(=O)=O)COC1 3.55 µM [inhibitor, partial curve, poor fit], Cc1ncsc1CN1CCCCCCNC(=O)CC1 39.8 µM [inhibitor, single point], CC1CCCCN1C(=O)Cn1ncc2c3ccccc3n(Cc3ccccc3F)c2c1=O (stereo unspecified) 35.5 µM [inhibitor, single point], CC(C)CN1CCN(C2CCOC3(CCN(C(=O)c4cccs4)CC3)C2)CC1 (stereo unspecified) 35.5 µM [inhibitor, single point], Cc1c(CC(=O)NCC(F)(F)F)c2c(n1Cc1ccccc1F)CCCC2=O 2.51 µM [inhibitor, partial curve, poor fit], CN(C)[C@@H]1CN(C2CCSCC2)CC[C@@H]1CNC(=O)C1CC1 39.8 µM [inhibitor, single point], O=S(=O)(NC[C@H]1O[C@@H](CO)[C@@H](O)[C@H]1N1CCN(c2ccccn2)CC1)c1ccccc1 10 µM [inhibitor, partial curve, poor fit], N#Cc1cccc(CN2CCOCCNC(=O)CC2)c1 1.58 µM [inhibitor, full curve, poor fit], COc1ccc(C(=O)N2CCN3C(=O)c4cc(-c5ccc(Cl)cc5)ccc4NC(=O)[C@@H]3C2)cc1 39.8 µM [inhibitor, single point], COc1cccc(CNC(=O)C2CCC(CNS(=O)(=O)c3ccc(Br)s3)CC2)c1 (stereo unspecified) 0.891 µM [inhibitor, full curve, poor fit], COc1ccc(C2Cn3cnc(C(=O)N4CCC(C(=O)NC(C)c5ccccc5)CC4)c3CO2)cc1 (stereo unspecified) 5.62 µM [inhibitor, single point], COc1ccc(C(C)n2c(C)c3c(C)nnc(C)c3c2C)cc1 (stereo unspecified) 7.08 µM [inhibitor, single point], CNc1ccnc(-c2ccccc2C)n1 44.7 µM [inhibitor, single point], CC(C)(Oc1nn(Cc2cccc(Cl)c2)c2ccccc12)C(=O)NC1CC1 56.2 µM [inhibitor, single point], NC(=O)c1cccc(CN2CCCC3(Cc4ccccc4N(C(=O)c4ccc(Cl)cc4)C3)C2)c1 (stereo unspecified) 28.2 µM [inhibitor, single point], Clc1ccccc1C(c1ccccc1)(c1ccccc1)n1ccnc1 15.8 µM [inhibitor, single point] and 39.8 µM [inhibitor, single point], Fc1ccc(Cc2cn3cc(-c4ccccc4)nc3s2)cc1 3.55 µM [inhibitor, full curve, poor fit], Cn1ncc2c(C(=O)NC3CCCCCC3)cc(C(C)(C)C)nc21 56.2 µM [inhibitor, partial curve, poor fit], O=C(CCC1CCCC1)NCCc1noc(-c2ccccc2)n1 12.6 µM [inhibitor, partial curve, poor fit], CC1CCN(S(=O)(=O)c2ccc3c(c2)N(CC(=O)NC(C)C)C(=O)CO3)CC1 3.98 µM [inhibitor, full curve, poor fit], Cc1ncsc1C1N(C2CCNCC2)C(=O)C12CCCC2 (stereo unspecified) 28.2 µM [inhibitor, partial curve, poor fit], CCOC(=O)c1ccc(OC(=O)CCCCCN=C(N)N)cc1 27.1 µM [inhibitor, partial curve, poor fit], O=C(NCC1CC1)c1cccc(OC2CN(Cc3cccc(F)c3F)C2)c1 11.2 µM [inhibitor, partial curve, poor fit], CC1=C[C@@H](CN2CCN(c3ncccn3)CC2)[C@H](C(C)C)C[C@H]1Cc1nnc(-c2ccccc2F)o1 28.2 µM [inhibitor, single point], Cn1cc(CNC(=O)C[C@@H]2C[C@H]3O[C@H](CNCc4ccccc4OC(F)(F)F)[C@@H](O)[C@H]3O2)cn1 3.98 µM [inhibitor, full curve], O=C(Cc1ccc(Cl)cc1)NCC(c1cccs1)S(=O)(=O)c1ccc(F)cc1 (stereo unspecified) 11.2 µM [inhibitor, single point], CCCOc1ccc(CN2C[C@@H](CO)[C@H](c3ccncc3)C2)cc1 10 µM [inhibitor, partial curve, poor fit], Cn1ncc2c(-c3ccc([S+](C)(=O)[O-])cc3)cc(C(=O)NCc3ccc(F)cc3)nc21 10 µM [inhibitor, partial curve, poor fit], COc1cc(CC(=O)O)ccc1O 3.16 µM [inhibitor, full curve]

Activity change, negative = inhibition, inconclusive:
Clc1ccccc1C(c1ccccc1)(c1ccccc1)n1ccnc1 -32.2% [inhibitor]
